Experiment: Preliminary pharmacokinetics after i.p. injection (LC-MS quantitation in plasma)
Settings: 30 min after 1 mg/kg injection i.p.

N=C(N)NCCC[C@H](NC(=O)[C@@H](CC(=O)NO)Cc1ccc2ccccc2c1)C(=O)N[C@@H](Cc1c[nH]c2ccccc12)C(=O)N[C@@H](CCC(=O)O)C(N)=O [Ii1, reference compound]
detection in blood: not detected

Source: patent publication US9243038B2, “Macrocyclic insulin-degrading enzyme (IDE) inhibitors and uses thereof” (President and Fellows of Harvard College, priority 2011, dated 2016)
